Article PMC4075450
Read-outs that look alike come from different tables or passages of the source. No constants are given. Whether binding was seen depends on the method and setting. Some entries that bind do so weakly or less than the wild type. Tags and fused reporters may be left off the sequences shown.

Amino acid sequences for entries named in this document (tags omitted).
UniProt Q8S307: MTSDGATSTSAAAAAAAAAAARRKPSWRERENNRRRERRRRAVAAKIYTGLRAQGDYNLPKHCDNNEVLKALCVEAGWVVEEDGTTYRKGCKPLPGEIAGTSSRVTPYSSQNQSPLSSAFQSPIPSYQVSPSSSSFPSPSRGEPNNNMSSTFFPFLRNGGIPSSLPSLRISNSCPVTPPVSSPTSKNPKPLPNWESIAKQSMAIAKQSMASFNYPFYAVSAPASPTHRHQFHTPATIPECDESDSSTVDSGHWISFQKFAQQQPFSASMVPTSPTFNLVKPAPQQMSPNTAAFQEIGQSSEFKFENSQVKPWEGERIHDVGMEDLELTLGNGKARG

What was measured:
Assay in all cases: two-hybrid; yeast; clones grown on synthetic dropout medium without histidine (−HIS) plus 1 mM 3AT (1 or 5 mM 3AT for the ARF6 fragments); activation domain and DNA binding domain fusions
[1] = target: T1, ARF6 (auxin response factor 6), yeast two-hybrid fusion (Arabidopsis thaliana) (UniProt Q9ZTX8)
T1 sequence: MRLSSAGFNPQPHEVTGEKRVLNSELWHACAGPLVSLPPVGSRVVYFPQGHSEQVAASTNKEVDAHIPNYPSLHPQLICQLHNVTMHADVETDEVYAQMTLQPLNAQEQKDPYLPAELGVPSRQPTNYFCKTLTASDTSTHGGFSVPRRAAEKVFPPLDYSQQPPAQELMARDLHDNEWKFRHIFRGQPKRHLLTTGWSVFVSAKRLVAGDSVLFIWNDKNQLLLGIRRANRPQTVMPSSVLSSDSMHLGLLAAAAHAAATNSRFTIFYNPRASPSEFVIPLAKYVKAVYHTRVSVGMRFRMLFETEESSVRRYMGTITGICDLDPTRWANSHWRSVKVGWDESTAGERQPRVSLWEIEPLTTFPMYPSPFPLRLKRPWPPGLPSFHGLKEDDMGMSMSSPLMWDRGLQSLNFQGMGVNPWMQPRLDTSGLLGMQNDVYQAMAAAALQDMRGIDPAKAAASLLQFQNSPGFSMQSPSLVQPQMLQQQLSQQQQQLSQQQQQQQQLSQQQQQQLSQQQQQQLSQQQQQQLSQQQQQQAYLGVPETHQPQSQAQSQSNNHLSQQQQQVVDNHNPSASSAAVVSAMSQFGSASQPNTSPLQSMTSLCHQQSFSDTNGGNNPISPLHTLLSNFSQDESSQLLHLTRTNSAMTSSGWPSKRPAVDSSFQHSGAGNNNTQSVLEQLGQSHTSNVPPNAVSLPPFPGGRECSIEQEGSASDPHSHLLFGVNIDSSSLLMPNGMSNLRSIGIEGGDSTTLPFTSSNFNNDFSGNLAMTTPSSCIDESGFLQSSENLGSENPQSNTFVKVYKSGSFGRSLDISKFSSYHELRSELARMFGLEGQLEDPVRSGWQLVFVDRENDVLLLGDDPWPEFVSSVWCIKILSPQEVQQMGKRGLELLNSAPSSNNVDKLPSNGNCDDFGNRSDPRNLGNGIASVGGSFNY

[2] = target: T2, ARF8 (auxin response factor 8), yeast two-hybrid fusion (Arabidopsis thaliana) (UniProt Q9FGV1)
T2 sequence: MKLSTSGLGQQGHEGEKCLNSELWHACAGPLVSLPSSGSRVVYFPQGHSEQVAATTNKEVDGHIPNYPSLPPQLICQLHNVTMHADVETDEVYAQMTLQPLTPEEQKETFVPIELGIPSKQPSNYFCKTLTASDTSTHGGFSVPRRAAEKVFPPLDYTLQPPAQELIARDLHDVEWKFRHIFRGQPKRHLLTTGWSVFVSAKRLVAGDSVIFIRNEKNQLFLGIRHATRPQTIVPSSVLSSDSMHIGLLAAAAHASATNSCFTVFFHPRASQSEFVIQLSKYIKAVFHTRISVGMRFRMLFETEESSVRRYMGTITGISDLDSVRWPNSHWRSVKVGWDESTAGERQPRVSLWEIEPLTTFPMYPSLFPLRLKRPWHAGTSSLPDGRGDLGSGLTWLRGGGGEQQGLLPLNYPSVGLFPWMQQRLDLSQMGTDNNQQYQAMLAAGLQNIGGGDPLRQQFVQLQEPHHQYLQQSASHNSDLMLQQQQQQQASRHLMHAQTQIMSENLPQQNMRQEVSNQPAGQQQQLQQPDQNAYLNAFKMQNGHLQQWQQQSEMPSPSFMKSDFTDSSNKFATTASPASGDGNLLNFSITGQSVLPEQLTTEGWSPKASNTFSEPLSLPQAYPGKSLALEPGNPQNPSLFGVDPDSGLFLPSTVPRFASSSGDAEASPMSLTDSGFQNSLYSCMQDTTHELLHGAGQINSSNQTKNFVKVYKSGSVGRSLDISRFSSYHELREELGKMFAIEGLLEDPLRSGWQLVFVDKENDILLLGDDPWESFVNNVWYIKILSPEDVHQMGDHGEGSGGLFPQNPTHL

[3] = target: T3, ARF7 (auxin response factor 7), yeast two-hybrid fusion (Arabidopsis thaliana) (UniProt P93022)
T3 sequence: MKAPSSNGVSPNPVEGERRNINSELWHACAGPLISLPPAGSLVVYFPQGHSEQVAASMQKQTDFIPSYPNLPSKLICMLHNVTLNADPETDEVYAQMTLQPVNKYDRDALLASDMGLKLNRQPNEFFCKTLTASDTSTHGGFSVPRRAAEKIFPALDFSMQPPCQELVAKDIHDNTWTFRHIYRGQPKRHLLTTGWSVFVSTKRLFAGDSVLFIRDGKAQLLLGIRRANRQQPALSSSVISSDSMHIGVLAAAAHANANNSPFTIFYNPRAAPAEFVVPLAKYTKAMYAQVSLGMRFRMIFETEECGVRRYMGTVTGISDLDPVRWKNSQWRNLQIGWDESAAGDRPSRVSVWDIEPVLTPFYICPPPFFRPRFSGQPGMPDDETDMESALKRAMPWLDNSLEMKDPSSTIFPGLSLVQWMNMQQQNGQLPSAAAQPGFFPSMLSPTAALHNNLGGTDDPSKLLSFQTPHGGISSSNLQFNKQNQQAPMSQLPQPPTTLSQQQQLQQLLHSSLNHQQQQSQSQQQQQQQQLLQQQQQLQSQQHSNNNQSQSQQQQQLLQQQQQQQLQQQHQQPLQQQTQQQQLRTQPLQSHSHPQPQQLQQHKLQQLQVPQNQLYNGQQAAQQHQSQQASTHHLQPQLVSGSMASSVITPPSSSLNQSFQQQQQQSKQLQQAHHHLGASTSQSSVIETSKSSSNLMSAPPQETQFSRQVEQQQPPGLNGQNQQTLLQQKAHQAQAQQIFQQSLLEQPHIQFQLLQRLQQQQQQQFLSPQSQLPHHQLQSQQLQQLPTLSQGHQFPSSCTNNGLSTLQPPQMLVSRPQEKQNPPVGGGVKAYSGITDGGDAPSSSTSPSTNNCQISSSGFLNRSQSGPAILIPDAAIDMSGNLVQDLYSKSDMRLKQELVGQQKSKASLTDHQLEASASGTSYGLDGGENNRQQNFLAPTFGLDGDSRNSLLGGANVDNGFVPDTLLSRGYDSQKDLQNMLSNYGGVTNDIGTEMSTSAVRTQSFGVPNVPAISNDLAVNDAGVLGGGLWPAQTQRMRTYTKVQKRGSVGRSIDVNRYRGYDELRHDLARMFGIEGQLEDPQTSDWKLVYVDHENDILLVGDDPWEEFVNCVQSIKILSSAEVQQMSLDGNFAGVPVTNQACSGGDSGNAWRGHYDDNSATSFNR

[4] = target: T4, ARF1 (auxin response factor 1), yeast two-hybrid fusion (Arabidopsis thaliana) (UniProt Q8L7G0)
T4 sequence: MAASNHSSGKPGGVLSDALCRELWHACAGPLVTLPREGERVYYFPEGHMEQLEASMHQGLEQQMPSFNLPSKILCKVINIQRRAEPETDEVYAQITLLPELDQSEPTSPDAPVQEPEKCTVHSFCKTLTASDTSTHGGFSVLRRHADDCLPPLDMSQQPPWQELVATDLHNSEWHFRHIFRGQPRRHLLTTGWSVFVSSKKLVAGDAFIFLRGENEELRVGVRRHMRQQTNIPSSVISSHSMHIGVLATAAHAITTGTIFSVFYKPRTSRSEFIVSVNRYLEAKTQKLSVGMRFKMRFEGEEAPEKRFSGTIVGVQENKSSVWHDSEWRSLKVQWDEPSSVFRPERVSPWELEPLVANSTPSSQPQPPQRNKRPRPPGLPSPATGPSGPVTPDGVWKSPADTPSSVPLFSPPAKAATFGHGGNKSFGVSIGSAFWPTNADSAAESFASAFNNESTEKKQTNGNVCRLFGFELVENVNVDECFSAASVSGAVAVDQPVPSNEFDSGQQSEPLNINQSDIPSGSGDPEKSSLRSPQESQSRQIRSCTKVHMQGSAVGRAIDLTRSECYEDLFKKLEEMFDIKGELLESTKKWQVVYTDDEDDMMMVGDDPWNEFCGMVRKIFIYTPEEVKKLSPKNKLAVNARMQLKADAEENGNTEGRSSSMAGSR

[5] = target: T5, HBI1, yeast two-hybrid fusion (Arabidopsis thaliana) (UniProt Q9ZPW3)
T5 sequence: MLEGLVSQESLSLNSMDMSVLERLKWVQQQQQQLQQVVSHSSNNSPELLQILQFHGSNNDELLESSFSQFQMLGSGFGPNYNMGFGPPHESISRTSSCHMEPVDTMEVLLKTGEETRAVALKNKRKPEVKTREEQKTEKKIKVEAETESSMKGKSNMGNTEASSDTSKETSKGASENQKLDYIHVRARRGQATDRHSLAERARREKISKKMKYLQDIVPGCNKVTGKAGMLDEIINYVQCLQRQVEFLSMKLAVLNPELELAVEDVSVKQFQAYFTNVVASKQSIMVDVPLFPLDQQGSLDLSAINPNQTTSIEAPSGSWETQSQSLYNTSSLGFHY

[6] = target: T1, ARF6 (auxin response factor 6), yeast two-hybrid fusion (Arabidopsis thaliana); remark: listed apart in the source
[7] = target: T6, BEE2, yeast two-hybrid fusion (Arabidopsis thaliana) (UniProt Q93VJ4)
T6 sequence: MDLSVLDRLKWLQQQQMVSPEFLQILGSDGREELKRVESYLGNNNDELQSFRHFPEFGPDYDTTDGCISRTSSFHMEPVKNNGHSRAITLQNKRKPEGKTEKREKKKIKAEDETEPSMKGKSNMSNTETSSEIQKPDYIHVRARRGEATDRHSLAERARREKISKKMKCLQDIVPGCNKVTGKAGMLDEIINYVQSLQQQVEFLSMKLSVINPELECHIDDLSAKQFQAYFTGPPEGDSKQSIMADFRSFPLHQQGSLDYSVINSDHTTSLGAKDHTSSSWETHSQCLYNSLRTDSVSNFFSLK

[8] = target: T7, IAA3, yeast two-hybrid fusion (Arabidopsis thaliana) (UniProt Q38822)
T7 sequence: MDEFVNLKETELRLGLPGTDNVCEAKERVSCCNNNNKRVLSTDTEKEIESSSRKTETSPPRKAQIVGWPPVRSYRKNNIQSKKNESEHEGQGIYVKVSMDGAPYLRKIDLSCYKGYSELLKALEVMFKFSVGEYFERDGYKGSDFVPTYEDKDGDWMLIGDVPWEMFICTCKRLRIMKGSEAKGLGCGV

[9] = target: T2, ARF8 (auxin response factor 8), yeast two-hybrid fusion (Arabidopsis thaliana); remark: listed apart in the source
[10] = target: T3, ARF7 (auxin response factor 7), yeast two-hybrid fusion (Arabidopsis thaliana); remark: listed apart in the source
[11] = target: T4, ARF1 (auxin response factor 1), yeast two-hybrid fusion (Arabidopsis thaliana); remark: listed apart in the source

Q: How did the binding [1] turn out when “BZR1 (brassinazole resistant 1), yeast two-hybrid fusion (from UniProt Q8S307 1-336)” was run?
A: binds

Q: And the binding [2]?
A: binds

Q: And the binding [3]?
A: no binding

Q: What about the binding [4] of the same molecule?
A: no binding

B1: PAR1, yeast two-hybrid fusion (protein, UniProt Q9SJH0 1-118)
chain: MEETLATPDATRRSLSPSCSATVKSRAAGFERRTKRRLSETNASVREDREEAEEEEDEVKEKIEALQRIIPGGAALGVDALFEETAGYILSLQCQIKTIKVLTSFLQRIDQEDMKFGG
Q: How did the binding [5] turn out when B1 was run?
A: binds

Q: What about the binding [6] of the same molecule?
A: no binding

Q: What about the binding [7] of the same molecule?
A: binds

Q: And the binding [8]?
A: no binding

B2: RGA-C (RGA with deletion of N-terminal 208 amino acids), yeast two-hybrid fusion (domain or fragment, UniProt Q9SLH3 209-587)
chain: VILVDSQENGVRLVHALMACAEAIQQNNLTLAEALVKQIGCLAVSQAGAMRKVATYFAEALARRIYRLSPPQNQIDHCLSDTLQMHFYETCPYLKFAHFTANQAILEAFEGKKRVHVIDFSMNQGLQWPALMQALALREGGPPTFRLTGIGPPAPDNSDHLHEVGCKLAQLAEAIHVEFEYRGFVANSLADLDASMLELRPSDTEAVAVNSVFELHKLLGRPGGIEKVLGVVKQIKPVIFTVVEQESNHNGPVFLDRFTESLHYYSTLFDSLEGVPNSQDKVMSEVYLGKQICNLVACEGPDRVERHETLSQWGNRFGSSGLAPAHLGSNAFKQASMLLSVFNSGQGYRVEESNGCLMLGWHTRPLITTSAWKLSTAAY
Q: Which binding [6] does the source give for B2 here?
A: binds

Q: And the binding [9]?
A: binds

Q: And the binding [10]?
A: binds

Q: And the binding [11]?
A: no binding
